Source: PubChem BioAssay AID1346428 (National Center for Advancing Translational Sciences (NCATS), 2018)
Several values for one entry are separate records, joined by “and”; a condition that tells them apart may be missing. Equal entries are not always repeated. Among all 48,000 compounds or so, about 1,200 (2.5%) were called active. Another 2% or so got no clear call; they are omitted.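 The calls were made as follows: active = activation of at least 60% and not above a set upper limit (about 1 call in 100 departs from these limits); inconclusive = activation of 40% to 60%, or above that upper limit; inactive = activation under 40%.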 This is one part of the list.

biological target: Probable G-protein coupled receptor 32 (Homo sapiens) (UniProt O75388); test: qHTS for Agonists of Human Resolvin D1 Receptor DRV1; conditions: CHO-K1 GPR32 beta-arrestin PathHunter luminescence, 90 min; at 76.9 µM; active compounds read high; zero percent set by DMSO-only wells; also: 0% is about no effect
Method in brief: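 CHO-K1 cells stably expressing ProLink-tagged GPR32 and Enzyme Activator-tagged beta-arrestin were seeded at 2,500 cells/well overnight, exposed to compounds for 90 min at 37 °C, then read by beta-Gal complementation chemiluminescence after 1 h detection reagent.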

Chain of UniProt O75388 (O75388 whole entry, looked up): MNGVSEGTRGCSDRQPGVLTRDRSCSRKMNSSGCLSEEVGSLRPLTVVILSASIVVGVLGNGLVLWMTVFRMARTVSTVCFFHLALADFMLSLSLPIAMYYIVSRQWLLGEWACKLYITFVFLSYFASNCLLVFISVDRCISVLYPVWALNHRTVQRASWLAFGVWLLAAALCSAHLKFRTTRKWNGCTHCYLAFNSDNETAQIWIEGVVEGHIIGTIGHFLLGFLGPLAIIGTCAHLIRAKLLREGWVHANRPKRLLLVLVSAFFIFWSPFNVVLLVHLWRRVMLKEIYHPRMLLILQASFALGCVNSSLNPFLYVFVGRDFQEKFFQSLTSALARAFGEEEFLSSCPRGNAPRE

activation, inactive:
O=C(Nc1ccc(F)cc1)c1csc2c1CCCCC2 -2.49%
COc1cccc(N2CC(NC(=O)c3ccc(S(=O)(=O)N4CCOCC4)cc3)CC2=O)c1 (stereo not drawn) -8.09%
O=C(CS)Nc1ccccc1 -57.4%
C/C=C1\[C@H]2C=C(C)C[C@]1(N)c1ccc(=O)[nH]c1C2 2.9%
COc1ccc(CNc2nc3c(-c4ccccc4)nnn3c3ccccc23)cc1 2.86%
Cc1cc(C)c(NC(=O)CN(C)S(=O)(=O)c2ccc3c(c2)CCC(=O)N3)c(C)c1 2.61%
COc1cc2c(cc1OC)n(Cc1cccc(C(F)(F)F)c1)c(=O)n1nc(-c3ccccc3)nc21 10.9%
O=C(Oc1cccc2cccnc12)c1ccccc1 -35.6%
O=C1CCCc2cc(S(=O)(=O)N3CCCC(C(=O)NCc4ccccc4)C3)ccc2N1 (stereo not drawn) 5.23%
CC(=O)c1cccc(NC(=O)c2nc(-c3ccccc3)n(-c3ccccc3)n2)c1 -7.85%
CCOC(=O)[C@H](CCc1ccccc1)N[C@@H](C)C(=O)N1Cc2cc(OC)c(OC)cc2C[C@H]1C(=O)O 8.02%
COc1cccc(NC(=O)CCNS(=O)(=O)c2ccc3c(c2)oc(=O)n3C)c1 -6.13%
COc1ccc(CNC(=O)c2cc3c(=O)n(Cc4ccco4)ccc3nc2C)cc1 -8.23%
CC(=O)Nc1ccc(NC(=O)CCCn2nc(C)c3sc4ccccc4c3c2=O)cc1 2.6%
CCOc1ccc(N(C)S(=O)(=O)c2ccc3c(c2)CCCN3C(C)=O)cc1 1.02%
O=C(CSCn1nnc2c(=O)[nH]c(Cc3ccc(F)cc3)nc21)Nc1cccc(C(F)(F)F)c1 -14%
CN1CCC(OC(c2ccccc2)c2ccccc2)CC1 22.1%
Cc1cc(C)c(NC(=O)CCS(=O)(=O)c2cc3c(cc2Cl)NC(=O)CO3)c(C)c1 40.3%
CCOc1ccc(NS(=O)(=O)c2cc3c(cc2Cl)NC(=O)CO3)cc1 -15.1%
CCc1ccccc1NC(=O)C(=O)NCCCN1CCOCC1 27.3%
CCn1cc(C(=O)N2CCN(c3ccc(C)cc3)C(C)C2)c(=O)c2cc(S(=O)(=O)N3CCCC3)ccc21 (stereo not drawn) 5.66%
CCC(C)NC(=O)C1CCN(S(=O)(=O)c2ccc3c(c2)CCCN3C(C)=O)CC1 (stereo not drawn) 7.06%
COc1cc2c(cc1OC)C(COc1cccc(C(F)(F)F)c1)N(C(=O)c1ccc(S(=O)(=O)N3CCCC3)cc1)CC2 (stereo not drawn) 8.69%
Cc1ccc2c(c1)C(N1CCN(C)CC1)=Nc1cccnc1N2 -5.78%
Cc1nc2ccc(S(=O)(=O)N(CC(=O)Nc3ccc(F)cc3F)Cc3ccccc3)cc2s1 -11.6%
Cc1nc2n(c(=O)c1CCN1CCC(C(=O)c3ccc(F)cc3)CC1)CCS2 -0.802%
CNC(=O)CCCN1C(=O)c2cccnc2Sc2ccccc21 -6.45%
CCOc1cc(C(=O)NCCc2sc(-c3ccc(F)cc3)nc2C)cc(OCC)c1OCC -6.1%
Cc1ccc(S(=O)(=O)Nc2cccc(-c3cn4cccc(C)c4n3)c2)c(C)c1 24.7%
O=C(Cn1c(=O)c2cccn2c2cccnc21)NCc1cccc(F)c1 -14.9%
O=C(Cn1c(SCc2ccccc2F)nc2ccncc21)Nc1ccccc1C(F)(F)F -2.24%
CCOc1ccc(NC(=O)c2ccc3[nH]c(C)c(C)c3c2)cc1 8.68%
COc1ccccc1NC(=O)Cn1c(=O)n(Cc2ccccc2)c(=O)c2c1c1cc(C)ccc1n2C -36.2%
O=C(Cn1ccc2cc(S(=O)(=O)N3CCCCC3)ccc21)NCCc1ccccc1Cl -6.88%
Cc1ccccc1NC(=O)Cn1cc(C(=O)c2cccs2)c2ccccc21 -6.21%
CCc1ccc(NC(=O)CSC2=Nc3ccccc3C3=NC(CCC(=O)NCc4ccccc4)C(=O)N23)cc1 (stereo not drawn) 0.327%
CN(C)C(=O)Oc1cccc([N+](C)(C)C)c1 24.7% and 2.39%
CCCCN(C)C(=O)c1cn(C)c2ccc(S(=O)(=O)N3CCC(C)CC3)cc2c1=O 13%
Cc1ccsc1CN1CCc2nc(Nc3ccccc3)ncc2C1 -9.14%
CC(NC(=O)CSc1n[nH]c(-c2ccccc2Cl)n1)c1nc2ccccc2[nH]1 (stereo not drawn) 2.32%
CCCCC(=O)OC1=C(C(=O)c2ccccc2)N(CCC)S(=O)(=O)c2ccccc21 -11.7%
O=C(NCc1ccccc1Cl)c1cc2c(s1)-c1ccc(Cl)cc1SC2 25%
CCSc1nc2c([nH]c3ccccc32)c(=O)n1CC -21.1%
